# IC50 is the fitted dose that halves viability relative to control wells, and lower means more sensitive; a limit (>, <) means that the fit lies beyond the doses tested. AUC sums up the same curve from the lowest dose to the 256-fold higher top dose; the more sensitive the line, the further below 1. For some assays here: An inferred top dose was derived from the fitted curves, not read from the paper.
# How the values were obtained:
# Test in all cases: Viability of human cancer cell lines after 72 h of drug (GDSC screen)
# S-Trityl-L-cysteine = compound: N[C@@H](CSC(c1ccccc1)(c1ccccc1)c1ccccc1)C(=O)O [S-Trityl-L-cysteine]; conditions: top dose 5.12 µM; top dose inferred
# Protocol: (§1)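 Human cancer cell lines in 384-well plates, medium with 10% serum, drug for 72 h over a 256-fold dose range (nine 2-fold or five 4-fold steps up to the top dose). Adherent lines were fixed and stained with the nucleic acid dye Syto60, suspension lines read with resazurin; signal relative to control wells, capped at 0 and 100%. One two-parameter sigmoid per drug and line, fitted in a mixed model over all curves with the slope shared within a line.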
# XL-184 = compound: COc1cc2nccc(Oc3ccc(NC(=O)C4(C(=O)Nc5ccc(F)cc5)CC4)cc3)c2cc1OC [XL-184]; conditions: top dose 5.12 µM; top dose inferred
# Protocol: as §1
# QL-XI-92 = compound: C=CC(=O)Nc1cc(NC(=O)c2ccc(C)c(NC(=O)c3ccno3)c2)cc(C(F)(F)F)c1 [QL-XI-92]; conditions: top dose 10.24 µM; top dose inferred
# Protocol: as §1
# Phenformin = compound: N=C(N)NC(=N)NCCc1ccccc1 [Phenformin]; conditions: top dose 4000 µM; top dose inferred
# Protocol: as §1
# Vinorelbine = compound: CCC1=C[C@@H]2CN(C1)Cc1c([nH]c3ccccc13)[C@@](C(=O)OC)(c1cc3c(cc1OC)N(C)[C@H]1[C@@](O)(C(=O)OC)[C@H](OC(C)=O)[C@]4(CC)C=CCN5CC[C@]31[C@@H]54)C2 [Vinorelbine]; conditions: top dose 0.064 µM; top dose inferred
# Protocol: as §1
# WHI-P97 = compound: COc1cc2ncnc(Nc3cc(Br)c(O)c(Br)c3)c2cc1OC [WHI-P97]; conditions: top dose 10.24 µM; top dose inferred
# Protocol: as §1
# AG-014699 = compound: CNCc1ccc(-c2[nH]c3cc(F)cc4c3c2CCNC4=O)cc1 [AG-014699]; conditions: top dose 5 µM; top dose inferred
# Protocol: as §1
# Gefitinib = compound: COc1cc2ncnc(Nc3ccc(F)c(Cl)c3)c2cc1OCCCN1CCOCC1 [Gefitinib]; conditions: top dose 0.5 µM
# Protocol: as §1
# NU-7441 = compound: O=c1cc(N2CCOCC2)oc2c(-c3cccc4c3sc3ccccc34)cccc12 [NU-7441]; conditions: top dose 2 µM; top dose inferred
# Protocol: as §1
# EHT 1864 = compound: O=c1cc(CN2CCOCC2)occ1OCCCCCSc1ccnc2cc(C(F)(F)F)ccc12 [EHT 1864]; conditions: top dose 10 µM; top dose inferred
# Protocol: as §1
Cell Line,AUC (S-Trityl-L-cysteine),IC50 (S-Trityl-L-cysteine) [µM],AUC (XL-184),IC50 (XL-184) [µM],AUC (QL-XI-92),IC50 (QL-XI-92) [µM],AUC (Phenformin),IC50 (Phenformin) [µM],AUC (Vinorelbine),IC50 (Vinorelbine) [µM],AUC (WHI-P97),IC50 (WHI-P97) [µM],AUC (AG-014699),IC50 (AG-014699) [µM],AUC (Gefitinib),IC50 (Gefitinib) [µM],AUC (NU-7441),IC50 (NU-7441) [µM],AUC (EHT 1864),IC50 (EHT 1864) [µM]
"BC-3 (B-cell lymphoma, suspension)",0.795,2.1,0.956,> 5.12,0.986,> 10.2,0.719,960,0.64,0.00931,0.979,> 10.2,–,–,–,–,–,–,–,–
"CAL-148 (breast, suspension)",0.78,1.94,0.988,> 5.12,0.986,> 10.2,0.696,843,0.684,0.0125,0.981,> 10.2,–,–,–,–,–,–,–,–
"CP67-MEL (melanoma, adherent)",0.751,3.04,–,–,–,–,–,–,–,–,–,–,–,–,–,–,–,–,–,–
"EW-12 (Ewing sarcoma, suspension)",0.975,> 5.12,–,–,–,–,–,–,–,–,–,–,–,–,–,–,–,–,–,–
"HCC-33 (small cell lung carcinoma, adherent)",0.863,4.54,0.979,> 5.12,0.85,7.92,0.69,859,0.855,0.0521,0.984,> 10.2,–,–,–,–,–,–,–,–
"Hs-445 (Hodgkin lymphoma, suspension)",0.734,1.4,0.969,> 5.12,0.852,7,0.703,886,0.498,0.00394,0.964,> 10.2,–,–,–,–,–,–,–,–
"KP-N-RT-BM-1 (neuroblastoma, semi-adherent)",0.904,> 5.12,–,–,–,–,–,–,–,–,–,–,–,–,–,–,–,–,–,–
"NCI-H2196 (small cell lung carcinoma, adherent)",0.956,> 5.12,0.908,> 5.12,0.983,> 10.2,0.446,177,0.904,> 0.064,0.984,> 10.2,–,–,–,–,–,–,–,–
"NK-92MI (lymphoid neoplasm, suspension)",0.804,2.36,–,–,–,–,–,–,0.943,> 0.064,–,–,–,–,–,–,–,–,–,–
"SU-DHL-1 (anaplastic large cell lymphoma, suspension)",0.996,> 5.12,0.997,> 5.12,0.898,6.47,0.607,453,0.997,> 0.064,0.997,> 10.2,–,–,–,–,–,–,–,–
"Saos-2 (osteosarcoma, adherent)",–,–,0.981,> 5.12,0.981,> 10.2,0.964,> 4000,0.948,> 0.064,0.981,> 10.2,0.977,> 5,0.976,> 0.5,0.962,> 2,0.973,> 10
"T84 (large intestine, adherent)",–,–,0.94,> 5.12,0.969,> 10.2,0.811,2160,0.863,0.0568,0.968,> 10.2,0.984,> 5,0.986,> 0.5,0.988,> 2,0.976,> 10
"T98G (glioma, adherent)",–,–,0.911,> 5.12,0.984,> 10.2,0.846,2590,0.74,0.0182,0.977,> 10.2,0.967,> 5,0.99,> 0.5,0.982,> 2,0.979,> 10
"TALL-1 (T-cell lymphoblastic leukaemia, suspension)",0.81,2.55,0.982,> 5.12,0.99,> 10.2,0.814,2050,0.99,> 0.064,0.989,> 10.2,–,–,–,–,–,–,–,–
"TE-441-T (rhabdomyosarcoma, adherent)",0.854,3.78,0.982,> 5.12,0.859,7.99,–,–,0.806,0.031,0.983,> 10.2,–,–,–,–,–,–,–,–
"TGBC11TKB (stomach, adherent)",–,–,0.976,> 5.12,0.991,> 10.2,0.852,2540,0.795,0.0259,0.99,> 10.2,0.988,> 5,0.984,> 0.5,0.983,> 2,0.982,> 10
"TK10 (kidney, adherent)",–,–,0.921,> 5.12,0.957,> 10.2,0.975,> 4000,0.87,> 0.064,0.885,> 10.2,0.975,> 5,0.871,> 0.5,0.939,> 2,0.891,> 10

Cell Line,AUC (S-Trityl-L-cysteine),IC50 (S-Trityl-L-cysteine) [µM],AUC (XL-184),IC50 (XL-184) [µM],AUC (QL-XI-92),IC50 (QL-XI-92) [µM],AUC (Phenformin),IC50 (Phenformin) [µM],AUC (Vinorelbine),IC50 (Vinorelbine) [µM],AUC (WHI-P97),IC50 (WHI-P97) [µM],AUC (AG-014699),IC50 (AG-014699) [µM],AUC (Gefitinib),IC50 (Gefitinib) [µM],AUC (NU-7441),IC50 (NU-7441) [µM],AUC (EHT 1864),IC50 (EHT 1864) [µM]
"TK (B-cell lymphoma, suspension)",–,–,0.922,> 5.12,0.99,> 10.2,0.576,396,0.743,0.0184,0.961,> 10.2,0.99,> 5,0.986,> 0.5,0.99,> 2,0.99,> 10
"TMK-1 (stomach, adherent)",–,–,0.967,> 5.12,0.984,> 10.2,0.904,> 4000,0.506,0.00416,0.963,> 10.2,0.946,> 5,0.962,> 0.5,0.916,> 2,0.972,> 10
"TOV-21G (ovary, adherent)",–,–,0.984,> 5.12,0.984,> 10.2,0.855,3630,0.958,> 0.064,0.982,> 10.2,0.943,> 5,0.949,> 0.5,0.97,> 2,0.858,9.38
"TOV-112D (ovary, adherent)",–,–,0.922,> 5.12,0.915,> 10.2,0.685,826,0.365,0.00169,0.866,9.28,0.961,> 5,0.952,> 0.5,0.881,> 2,0.852,7.81
"TT2609-C02 (thyroid, adherent)",–,–,0.972,> 5.12,0.958,> 10.2,0.976,> 4000,0.566,0.00615,0.981,> 10.2,0.933,> 5,0.981,> 0.5,0.948,> 2,0.943,> 10
"TYK-nu (ovary, adherent)",–,–,0.958,> 5.12,0.981,> 10.2,0.803,2160,0.876,> 0.064,0.979,> 10.2,0.954,> 5,0.965,> 0.5,0.914,> 2,0.96,> 10
"U-118-MG (glioma, adherent)",–,–,0.853,5.03,0.98,> 10.2,0.847,3670,0.868,> 0.064,0.963,> 10.2,0.805,3.01,0.967,> 0.5,0.957,> 2,0.812,6.44
"UACC-62 (melanoma, adherent)",–,–,0.986,> 5.12,0.984,> 10.2,0.802,1940,0.776,0.0253,0.983,> 10.2,0.942,> 5,0.981,> 0.5,0.978,> 2,0.978,> 10
"UACC-893 (breast, adherent)",–,–,0.968,> 5.12,0.944,> 10.2,0.699,1110,0.947,> 0.064,0.908,> 10.2,0.975,> 5,0.979,> 0.5,0.982,> 2,0.797,6.66
"VMRC-RCZ (kidney, adherent)",–,–,0.956,> 5.12,0.895,> 10.2,0.856,> 4000,0.721,0.019,0.963,> 10.2,0.926,> 5,0.978,> 0.5,0.919,> 2,0.906,> 10
"WM35 (melanoma, adherent)",–,–,0.873,5,0.922,> 10.2,0.679,796,0.763,0.0233,0.98,> 10.2,0.986,> 5,0.772,0.195,0.894,> 2,0.95,> 10
"WM793B (melanoma, adherent)",–,–,0.914,> 5.12,0.907,> 10.2,0.65,682,0.806,0.0368,0.97,> 10.2,0.956,> 5,0.956,> 0.5,0.966,> 2,0.981,> 10
"WM1552C (melanoma, adherent)",–,–,0.988,> 5.12,0.929,> 10.2,0.586,431,0.879,> 0.064,0.987,> 10.2,0.984,> 5,0.988,> 0.5,0.924,> 2,0.978,> 10
"WM-115 (melanoma, adherent)",–,–,0.903,> 5.12,0.816,7.33,0.463,193,0.888,> 0.064,0.891,> 10.2,0.944,> 5,0.959,> 0.5,0.924,> 2,0.977,> 10
"YAPC (pancreas, adherent)",–,–,0.965,> 5.12,0.972,> 10.2,0.744,1510,0.957,> 0.064,0.984,> 10.2,0.974,> 5,0.977,> 0.5,0.983,> 2,0.973,> 10
"YKG-1 (glioma, adherent)",–,–,0.917,> 5.12,0.853,8.19,0.736,1190,0.534,0.00495,0.972,> 10.2,0.961,> 5,0.979,> 0.5,0.966,> 2,0.979,> 10
"huH-1 (liver, adherent)",–,–,0.984,> 5.12,0.982,> 10.2,0.878,> 4000,0.984,> 0.064,0.984,> 10.2,0.983,> 5,0.964,> 0.5,0.963,> 2,0.896,> 10

# — the supplement of paper PMC4967469
